# The whole screen tested about 310,000 compounds, of which about 14,000 (4.5%) showed an effect of 50% or more. Effects have a minus sign here. The list shows a part of the results.
# Target: human ether-à-go-go-related gene (hERG) potassium channel (human, UniProt Q12809)
# Assay: primary screen, population patch clamp on CHO cells stably expressing hERG
# 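Further: peak tail current of the secondary pulse compared with the same well before compound.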
# Sequence of human ether-à-go-go-related gene (hERG) potassium channel (Q12809 whole entry, looked up): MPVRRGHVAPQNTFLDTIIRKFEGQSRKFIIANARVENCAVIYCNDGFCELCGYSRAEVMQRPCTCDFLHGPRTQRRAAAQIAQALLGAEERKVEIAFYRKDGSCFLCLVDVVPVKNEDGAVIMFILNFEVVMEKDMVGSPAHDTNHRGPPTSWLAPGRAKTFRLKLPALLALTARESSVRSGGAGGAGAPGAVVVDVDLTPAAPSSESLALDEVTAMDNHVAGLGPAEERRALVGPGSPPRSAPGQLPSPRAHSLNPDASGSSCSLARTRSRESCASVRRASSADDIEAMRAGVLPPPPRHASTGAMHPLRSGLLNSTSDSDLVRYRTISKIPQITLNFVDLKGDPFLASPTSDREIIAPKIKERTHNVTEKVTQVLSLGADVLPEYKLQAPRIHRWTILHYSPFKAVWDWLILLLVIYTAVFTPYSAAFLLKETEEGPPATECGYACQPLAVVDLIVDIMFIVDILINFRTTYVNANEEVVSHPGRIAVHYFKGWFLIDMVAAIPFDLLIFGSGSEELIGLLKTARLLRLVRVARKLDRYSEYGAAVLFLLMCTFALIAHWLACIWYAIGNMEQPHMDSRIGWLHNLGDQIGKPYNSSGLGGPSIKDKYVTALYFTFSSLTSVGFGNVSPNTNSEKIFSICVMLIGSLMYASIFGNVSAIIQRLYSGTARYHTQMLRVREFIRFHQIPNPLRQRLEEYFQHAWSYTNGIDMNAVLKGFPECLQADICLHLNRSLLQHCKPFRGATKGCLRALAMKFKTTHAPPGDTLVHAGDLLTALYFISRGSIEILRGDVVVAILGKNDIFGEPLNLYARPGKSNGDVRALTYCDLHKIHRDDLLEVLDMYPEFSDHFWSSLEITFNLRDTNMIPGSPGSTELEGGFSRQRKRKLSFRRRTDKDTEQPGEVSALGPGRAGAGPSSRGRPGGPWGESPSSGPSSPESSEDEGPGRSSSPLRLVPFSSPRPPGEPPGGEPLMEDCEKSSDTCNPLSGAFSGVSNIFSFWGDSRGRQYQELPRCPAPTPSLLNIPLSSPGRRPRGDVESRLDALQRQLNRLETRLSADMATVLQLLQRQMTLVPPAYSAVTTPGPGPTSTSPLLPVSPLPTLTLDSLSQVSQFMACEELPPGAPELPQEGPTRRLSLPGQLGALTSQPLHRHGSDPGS
row,SMILES,"hERG current change (%, negative = inhibition) at 10uM"
1,CCOC(=O)c1cn2c(C)cccc2n1,7.1%
2,Cn1c(/C=N/n2cnnc2)nc2ccccc21,1.16%
3,CSCCC(NS(=O)(=O)c1ccc2ccccc2c1)C(=O)O (stereo not drawn),19.1%
4,CCCc1nnc(NC(=O)CCC(=O)N2CCN(c3nc(C)cc(C)n3)CC2)s1,-4.66%
5,COc1nc(OC)nc(N2CCC(C(=O)NC3CC3)CC2)n1,18.1%
6,Cc1ccc(CSc2nnc(-c3ccccc3N)c(=O)[nH]2)cc1,11.7%
7,CC(OC(=O)/C=C/c1ccccc1)C(=O)N1CCc2ccccc21 (stereo not drawn),10.2%
8,Cc1oc(C(C)(C)C)cc1C(=O)N1CCCC1C(=O)O (stereo not drawn),2.92%
9,COc1cccc(CN(C)CC(=O)NCc2ccc(C)cc2)c1.O=C(O)C(=O)O,-49.3%
10,O=C1CCN(S(=O)(=O)c2ccccc2)CCN1CCOCc1ccc(F)cc1,-5.6%
11,O=C(O)c1ccc(Cn2cnc3cccnc32)cc1,21.2%
12,O=c1cc(-c2ccc(O)cc2)oc2ccccc12,16.1%
13,O=C(Nc1ccc(Br)cc1)C1CCCN1S(=O)(=O)c1cccs1 (stereo not drawn),-20.8%
14,CN(Cc1ccccc1)C(=O)c1nc[nH]c1C(=O)N1CCc2ccccc2C1,16.4%
15,CCSC1=N/C(=C\c2ccc(C)s2)C(=O)S1,2.69%
16,CCOC(=O)C1CCCN(S(=O)(=O)Cc2ccccc2)C1 (stereo not drawn),3.31%
17,CC(NCc1ccc2c(c1)OCO2)C(=O)N1CCc2ccccc21 (stereo not drawn),-17.2%
18,Cc1cccc(NC(=O)c2ccc(S(=O)(=O)N3CCCCCC3)cc2)n1,-4.07%
19,Oc1oc(-c2ccccc2)nc1C=Nc1cccc2ccccc12,-12.5%
20,CCOC(=O)[C@H]1[C@H]2COc3ccccc3[C@@H]2N2C(=O)c3cc(Br)ccc3NC(=O)[C@@]12C,-11%
21,COc1ccc(CCCC(=O)NC2CCCCC2C)c(C)c1 (stereo not drawn),-3.66%
22,CCCC(=O)Nc1ccccc1NC(=O)CCC,15.5%
23,c1ccc(-n2nnnc2Cc2nnnn2-c2ccccc2)cc1,50.3%

row,SMILES,"hERG current change (%, negative = inhibition) at 10uM"
1,CN(C(=O)CCc1ccccc1F)C1CCCN(Cc2ccccc2F)C1 (stereo not drawn),-0.872%
2,O=C(O)CN1CCN(Cc2ccc(F)cc2)C1=O,18.5%
3,CCCCC(=O)N/N=C(\C)CC(=O)Nc1ccccc1Br,0.0257%
4,O=C(c1cccnc1)N1CCC(Oc2ccc(C(=O)N3CCCC(O)C3)cc2)CC1 (stereo not drawn),-0.912%
5,CCOC(=O)CC1=NN(c2ccccc2)C(=O)/C1=C\c1ccc(OC)cc1OC,6.49%
6,Cc1ccc(CSCC(=O)NCc2ccco2)cc1,-23.7%
7,CC(C)(C)NC(=O)C1Cc2ccccc2CN1C(=O)Nc1cccc(Cl)c1 (stereo not drawn),-4.36%
8,O=S(=O)(N/N=C1/CCCc2ccccc21)c1ccc(Br)cc1,-9.33%
9,COc1ccc(CCN2C(=O)CN(Cc3ccccc3)CC2=O)cc1OC,-14.4%
10,Cc1ccc(C)c(OCCn2ccnc2)c1,8.02%
11,NS(=O)(=O)c1ccc(CNC(=S)NC2CCCC2)cc1,4.12%
12,COC(=O)c1cccc(Oc2cccc(Cl)n2)c1,14.7%
13,COC(=O)c1ccc(CSc2nc3ccccc3c(=O)n2Cc2ccco2)o1,-17.6%
14,CCc1ccc(C(=O)CSc2nnc(C)c(=O)[nH]2)cc1,-1.23%
15,Cc1cccc(OCC(=O)N/N=C/c2ccccc2C(=O)O)c1,1.76%
16,Nc1nnc2c(C(F)(F)F)nc3ccccc3n12,11.8%
17,CCC(=O)N1CC(C)C(=O)Nc2ccccc21 (stereo not drawn),16.1%
18,Cc1nnc(SCC(=O)NCc2ccco2)n1-c1ccc(F)cc1,0.711%
19,Cc1ccc(-n2c(=O)c3ccccc3n(CC(=O)C(C)(C)C)c2=O)cc1,8.51%
20,CCOc1ccc(S(=O)(=O)N2CCC(C(=O)NCCc3ccc(OC)c(OC)c3)CC2)cc1,-13.6%
21,COc1ccc(N2CCN(C(=O)c3ccc(N(C)S(=O)(=O)c4ccc(OC)cc4)cc3)CC2)cc1,-32.1%
22,CCC(=O)N1CCc2cc(S(=O)(=O)NC(C(=O)Nc3cccc(C)n3)C(C)C)ccc21 (stereo not drawn),14.8%
